Test results reported in PubChem BioAssay AID588855 (National Center for Advancing Translational Sciences (NCATS), 2011).
The whole screen tested about 410,000 compounds, of which about 5,000 (1.2%) were called active. This list was built around the results that the source calls inconclusive (neither active nor inactive); the mix of calls is not that of the screen. The call rests on the fitted dose curve; in most records, active means well fitted inhibition curve with a large enough effect; inconclusive means small, poorly fitted or top-dose-only effect; inactive means no such curve, though single readings can be large or run the other way. Where the call is inconclusive, the potency comes from a doubtful curve fit.

test: qHTS for Inhibitors of TGF-b; details: HepG2 CAGA-GFP TGF-b/SMAD3 reporter, GFP fluorescence, 18 h, TGF-beta stimulated, 500 pg/mL final; series mostly up to 46.1 µM; further: nearly all actives have a fitted effect of over 65% in size
Method in brief: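 Smad-responsive CAGA-GFP expression was quantified in HEPG2 cells exposed to compounds and 500 pg/mL final TGF-beta for 18 h at 37 degrees C; unstimulated wells defined full inhibition.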
Potency means the concentration at half of the fitted maximal effect; tags describe the fitted curve by direction and shape.

Compound	Potency
CC(=O)Nc1ccc(NC(=O)c2cc3sccc3n2Cc2ccc(Cl)cc2)cc1	inconclusive: 10 µM [inhibitor, partial curve]
COc1ccc(-c2coc3c(C(=O)Nc4cccnc4)cccc23)c(C)c1	inactive
O=C(N/N=C1\CC(c2ccccc2)Oc2ccccc21)c1ccc(O)cc1 (stereo not drawn)	inactive
COc1ccc(-c2csc(CCn3nc(C)cc3C)n2)cc1	inconclusive: 35.5 µM [inhibitor, single point]
CC(=O)NCCC(=O)Nc1cc(S(=O)(=O)N2CCCCC2)ccc1Oc1ccccc1	inconclusive: 35.5 µM [inhibitor, single point]
CN(CC(=O)Nc1cccc(F)c1)C(=O)c1ccc(-c2cccc(C(F)(F)F)c2)o1	inconclusive: 35.5 µM [inhibitor, single point]
Cc1nn(-c2ccccc2)c2c1N(CCCC(=O)NCc1ccccc1)C(=O)CS2	inconclusive: 35.5 µM [inhibitor, single point]
N/C(=N\OC(=O)c1cccc2ccccc12)c1cccc([N+](=O)[O-])c1	inactive
CCNC(=S)N1CCC(C(N)=O)CC1	inactive
CN1CCN(C(=O)CCCN2C(=O)/C(=C/c3cccc(Br)c3)SC2=S)CC1	inconclusive: 35.5 µM [inhibitor, single point]
Cc1cc(OCc2cc(C(=O)N3CCC(Oc4cccnc4)CC3)no2)cc(C)c1Cl	inconclusive: 15.8 µM [inhibitor, single point]
CCOc1ccc(N(C(C)C(=O)NCCSc2ccc(C)cc2)S(C)(=O)=O)cc1 (stereo not drawn)	inconclusive: 2.51 µM [inhibitor, partial curve, poor fit]
CN(C)C(=O)C(=O)c1c(-c2ccccc2)cc2ccccn12	inconclusive: 25.1 µM [inhibitor, single point]
COc1ccc(N2CCN(C(=O)c3cc4c(s3)CCCCC4)CC2)cc1	inconclusive: 14.1 µM [inhibitor, single point]
CCOC(=O)C1=CCN(S(=O)(=O)c2ccccc2C)C1c1cccc(C)c1 (stereo not drawn)	inconclusive: 20 µM [inhibitor, partial curve, poor fit]
COc1ccc(C(=O)N2CCC2)cc1S(=O)(=O)NCc1ccc(Cl)cc1	inactive
Fc1ccccc1C1c2[nH]c3ccccc3c2CCN1Cc1ccoc1 (stereo not drawn)	inconclusive: 15.8 µM [inhibitor, single point]
O=C(/C=C/c1ccc(Br)cc1)c1ccc(NC2=NCCCS2)cc1	inconclusive: 15.8 µM [inhibitor, partial curve, poor fit]
C=CCC1(NC(C)c2ccccc2)CCCCC1 (stereo not drawn)	inconclusive: 6.31 µM [inhibitor, single point]
O=S(=O)(NCCCc1ccccc1)c1ccc(Br)cc1	inconclusive: 14.1 µM [inhibitor, single point]
CCOc1ccc(NCc2nnc(SCc3ccc(Cl)cc3)n2-c2ccccc2)cc1	inconclusive: 25.1 µM [inhibitor, single point]
N#CN=c1snc(-c2ccccc2Cl)n1-c1ccc(F)cc1	inactive
Cc1cc(C)cc(NS(=O)(=O)c2ccc(NC(=S)NC(=O)c3cccs3)cc2)c1	inconclusive: 35.5 µM [inhibitor, single point]

Compound	Potency
COc1ccc(CNC(=O)CCc2c(C)nc3nc(CNC(=O)OC(C)(C)C)nn3c2C)cc1	inactive
Cn1cc(C(=O)NCCc2ccccc2)c(=O)c2cc(S(=O)(=O)N3CCCCCC3)ccc21	inactive
O=C(O)C(CO)N=Cc1c(O)c2ccccc2oc1=O (stereo not drawn)	inactive
Cc1ncsc1C(=O)N1N=C2/C(=C/c3ccccc3)CCCC2C1c1ccccc1 (stereo not drawn)	inconclusive: 35.5 µM [inhibitor, single point]
CCCNC(=O)C1CCN(Cc2cc3ccccc3n2Cc2ccccc2)CC1	inconclusive: 20 µM [inhibitor, single point]
CC1(C)CCC(c2ccc(Cl)cc2)=C(CN2CCN(c3ccc(C(=O)NS(=O)(=O)c4ccc(N[C@H](CCN5CCOCC5)CSc5ccccc5)c(S(=O)(=O)C(F)(F)F)c4)cc3)CC2)C1	inconclusive: 3.16 µM [inhibitor, full curve, poor fit]
C#Cc1ccc([C@@H]2C=C(C(=O)OCC=C)O[C@H](OCCCCO)C2)cc1	inconclusive: 12.6 µM [inhibitor, single point]
COc1cc(C)ccc1OCCSc1nc2ccc(NC(=O)c3ccc(C)cc3)cc2s1	inconclusive: 3.16 µM [inhibitor, single point]
COc1ccc(-c2nc3ccc(C)cn3c2CC(C)(C)C)cc1OC	inconclusive: 15.8 µM [inhibitor, single point]
Nc1nonc1C(=O)NCCNCc1c(OCc2ccccc2F)ccc2ccccc12	inconclusive: 20 µM [inhibitor, partial curve, poor fit]
C=COC(=O)N1CCN(/[N+]([O-])=N/Oc2ccc([N+](=O)[O-])cc2[N+](=O)[O-])CC1	active: 10 µM
COc1ccc(C2CC(c3ccccc3)=NN2C(=O)c2ccc(F)cc2)cc1 (stereo not drawn)	inconclusive: 35.5 µM [inhibitor, single point]
O=C(C1CCCN(S(=O)(=O)c2cnc[nH]2)C1)N(CCc1ccccc1)Cc1ccccc1 (stereo not drawn)	inconclusive: 35.5 µM [inhibitor, single point]
CCCc1nc2oc3c(OCC)ncnc3c2c2c1COC(C)(C)C2	inconclusive: 0.112 µM [inhibitor, full curve, poor fit]
CCOC(=O)N1CCN(C(=O)CN(C)S(=O)(=O)c2ccc(Cl)cc2)CC1	inactive
COCCNC(=O)c1ccc2c(=O)n(CCOC)c(SCC(=O)c3c[nH]c4ccccc34)nc2c1	inactive
CCCCCCCCn1cnc2c(N)c(C)c(C)cc21	inconclusive: 35.5 µM [inhibitor, single point]
N#Cc1cccc(NCC(=O)Nc2cccc(S(=O)(=O)N3CCCCC3)c2)c1	inconclusive: 35.5 µM [inhibitor, single point]
COc1ccccc1Cc1nc2ccccc2n1S(=O)(=O)c1ccc(Cl)cc1	inconclusive: 6.31 µM [inhibitor, single point]
N#Cc1nccnc1S(=O)(=O)c1cccs1	inconclusive: 12.6 µM [inhibitor, partial curve, poor fit]
CC1(C)CC(=O)C(N=Nc2ccc(C(F)(F)F)cc2[N+](=O)[O-])=C(O)C1	active: 12.6 µM
Cc1nnc(-c2ccc(Oc3ccc(Cl)cc3)c([N+](=O)[O-])c2)o1	inactive
Cc1ccc([C@@H]2CC=C(C(=O)O)[C@H](c3ccc(Br)cc3)N2S(=O)(=O)c2ccccc2C)cc1	inconclusive: 35.5 µM [inhibitor, single point]

Compound	Potency
NC(=O)c1c(NC(=O)c2cccs2)sc2c1CCCCCC2	inactive
CCOC(=O)c1ccc(N2C(=O)Cc3cc(OCC)c(OCC)cc3C2c2ccccc2)cc1 (stereo not drawn)	inconclusive: 35.5 µM [inhibitor, single point]
O=C(c1ccc2c(c1)OCCO2)N(Cc1cccnc1)c1nc2c(F)cc(F)cc2s1	inconclusive: 15.8 µM [inhibitor, partial curve, poor fit]
COc1ccc(N(CC(=O)Nc2cc(Cl)ccc2C)S(=O)(=O)c2c(C)noc2C)cc1	active: 11.2 µM
Cc1cc(NCc2ccccn2)n2nc(C)c(-c3ccccc3)c2n1	active: 11.2 µM
COc1ccc(N2CCN(C(=O)CSc3ccc(C)cc3)CC2)cc1	inactive
CNc1c(Br)cc(/C=C2\C=C(C(O)c3cc(Br)c(NC)c(Br)c3)c3ccccc32)cc1Br (stereo not drawn)	inactive
COc1ccccc1N(C)S(=O)(=O)c1ccc(C(=O)NC2=NCCS2)cc1	inactive
CCCCCCSc1cc(-c2nc3cc(C)ccn3c2NCCCC)ccc1OC	inconclusive: 22.4 µM [inhibitor, single point]
O=C(C=Cc1ccccn1)c1ccccc1	active: 6.31 µM
COc1ccccc1-n1c(SCc2cc(=O)oc3cc(O)ccc23)nc2ccccc2c1=O	inconclusive: 17.8 µM [inhibitor, single point]
O=C(COC(=O)CCc1nc2ccccc2s1)Nc1ccc(Cl)cn1	inconclusive: 35.5 µM [inhibitor, single point]
CC(C)=CCC(C)(C)CNC(=O)NC1CCCCC1	inactive
CC(C)Sc1nc(N)nc(-c2cccs2)c1C#N	inconclusive: 20 µM [inhibitor, partial curve, poor fit]
CCc1cccc(NC(=O)c2oc3ccc4c(c3c2C)C(=O)CC(C)(C)O4)c1	inactive
Cc1csc2c(N3CCN(C(=O)Nc4ccc(OC(F)(F)F)cc4)CC3)ncnc12	inconclusive: 15.8 µM [inhibitor, single point]
O=c1cc(-c2ccccc2)nc(N2CCN(Cc3ccc4c(c3)OCO4)CC2)[nH]1	inconclusive: 2.82 µM [inhibitor, full curve]
CN(/N=C/c1cccs1)c1cc(=O)n(C)c(=O)[nH]1	inconclusive: 3.55 µM [inhibitor, single point]
N=C(c1ccc([N+](=O)[O-])cc1)N1CCCCCC1	inactive
Oc1ccc(-c2cccc(-c3ccc(O)cc3)c2)cc1	inconclusive: 7.94 µM [inhibitor, partial curve]
Nc1nnc2cc(Cl)ccc2n1	inactive
CCCCN1CC[C@H]2C=CC[C@@H](C(=O)Nc3ccc(Cl)cc3Cl)[C@H]2C1=O	inconclusive: 8.91 µM [inhibitor, partial curve]
